In publication PMC6664820, “Novel natural and synthetic inhibitors of solute carriers SGLT1 and SGLT2” (Pharmacology Research & Perspectives, 2019):
Among all 1,900 compounds or so, about 40 (2%) showed an effect of 50% or more. The list shows a part of the results.

What follows are compounds tested against human SGLT1 (hSGLT1) (human, UniProt P13866) (assay: primary screen, percent of control activity; higher = less effect of the substance). Details: 50 µM.
Design: single well
Procedure, shortened: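 Single-point screen at 50 µmol/L in CHO-hSGLT1 cells, with 160 µmol/L 1-NBD-glucose in glucose-free DMEM for 90 min at 37°C. Fluorescence from isopropanol extracts was calibrated, and CHO wild-type uptake was subtracted. Data are percent of uptake without compound.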

human SGLT1 (hSGLT1), sequence (P13866 whole entry, looked up): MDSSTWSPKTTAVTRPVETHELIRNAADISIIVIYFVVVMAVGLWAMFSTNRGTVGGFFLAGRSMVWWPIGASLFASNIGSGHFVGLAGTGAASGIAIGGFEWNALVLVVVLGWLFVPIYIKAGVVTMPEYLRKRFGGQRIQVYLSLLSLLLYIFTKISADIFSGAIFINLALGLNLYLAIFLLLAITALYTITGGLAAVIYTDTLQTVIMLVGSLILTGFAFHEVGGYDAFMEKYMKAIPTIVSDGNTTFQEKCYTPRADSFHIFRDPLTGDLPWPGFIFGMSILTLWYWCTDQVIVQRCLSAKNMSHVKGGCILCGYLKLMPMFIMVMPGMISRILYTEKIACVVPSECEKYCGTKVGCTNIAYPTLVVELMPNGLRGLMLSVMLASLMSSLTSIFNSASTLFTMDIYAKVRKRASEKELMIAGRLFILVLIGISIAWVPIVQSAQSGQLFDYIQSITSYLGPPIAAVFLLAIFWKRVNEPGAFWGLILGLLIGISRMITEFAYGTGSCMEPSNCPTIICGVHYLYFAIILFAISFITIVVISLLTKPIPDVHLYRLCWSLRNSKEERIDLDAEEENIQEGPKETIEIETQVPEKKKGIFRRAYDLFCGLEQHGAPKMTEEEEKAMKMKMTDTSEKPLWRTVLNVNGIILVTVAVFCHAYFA

SMILES	NORMALIZED SGLT1 ACTIVITY (%)
Nc1ccc(C(=O)[O-])cc1.[K+]	92
CCCCCC/C=C\CCCCCCCc1cccc(O)c1C(=O)O	149
NCCc1c[nH]c2ccccc12	123
C=C1c2c(Cl)ccc(O)c2C(=O)C2=C(O)[C@]3(O)C(=O)C(C(N)=O)=C(O)[C@@H](N(C)C)[C@@H]3[C@@H](O)[C@H]12.O=C(O)c1cc(S(=O)(=O)O)ccc1O	93
CCC(=O)O[C@H]1CC[C@H]2[C@@H]3CCc4cc(O)ccc4[C@H]3CC[C@]12C	95
Oc1c(Br)cc(Br)c2cccnc12	50
c1cc2c(cc1[C@H]1OC[C@H]3[C@@H]1CO[C@H]3c1ccc3c(c1)OCO3)OCO2	185
CC1C[C@H]2CC(=O)[C@H]3CCCN4CCC[C@H]2[C@]34C1.[O-][Cl+3]([O-])([O-])O (stereo partly drawn)	133
Cl.NCc1ccc(S(N)(=O)=O)cc1	120
NC(=O)c1ccccc1O	146
O=c1cccc2n1CC1CC2CN2CCCC[C@@H]12.[O-][Cl+3]([O-])([O-])O (stereo partly drawn)	114
COc1cc(-c2coc3cc(OC)c(OC)c(OC)c3c2=O)cc(OC)c1OC	193
CC(=O)O[C@@H]1CC[C@@]2(C)C(CC[C@]3(C)C2CC=C2C4CC(C)(C)CC[C@]4(C(=O)O)CC[C@]23C)C1(C)C (stereo partly drawn)	141
C/C=C(\C)C(=O)O[C@H]1C[C@@H](OC(C)=O)[C@@]2(C(=O)OC)CO[C@@H]3C2[C@]12CO[C@](O)(C(=O)OC)[C@H]2[C@](C)(C12O[C@@]1(C)[C@H]1C[C@@H]2OC2OC=C[C@@]21O)[C@@H]3O (stereo partly drawn)	96
CC(C)(Oc1ccc(CCNC(=O)c2ccc(Cl)cc2)cc1)C(=O)O	113
CCOC(=O)C1=C(COCCN)NC(C)=C(C(=O)OC)C1c1ccccc1Cl.O=S(=O)(O)c1ccccc1 (stereo not drawn)	99
CN1CCN(CCCN2c3ccccc3Sc3ccc(C(F)(F)F)cc32)CC1.Cl.Cl	61
CCC(C)C(=O)OC1[C@@H]2CC3=C4CC(=O)O[C@@H](c5ccoc5)[C@]4(C)CCC3[C@@](C)(C2=O)[C@@H](CC(=O)OC)C1(C)C (stereo partly drawn)	116
C[C@@H]1CC[C@H]2C(C)(C)[C@H]3C[C@@]12CC[C@@]3(C)O	112
CN(C)CCC(c1ccc(Br)cc1)c1ccccn1.O=C(O)/C=C\C(=O)O (stereo not drawn)	72
COC(=O)COc1cc(Cl)c(Cl)cc1Cl	135

SMILES	NORMALIZED SGLT1 ACTIVITY (%)
COc1cc(C)c(C(=O)O)c(O)c1	137
CO[C@H]1/C=C/O[C@@]2(C)Oc3c(C)c(O)c4c(O)c(c(/C=N/N5CCN(C)CC5)c(O)c4c3C2=O)NC(=O)/C(C)=C\C=C\[C@H](C)[C@H](O)[C@@H](C)[C@@H](O)[C@@H](C)[C@H](OC(C)=O)[C@@H]1C	92
C=CC(C1=CC(=O)C(OC)=CC1=O)c1ccc(O)cc1 (stereo not drawn)	321
O=C1CCCC2C3CC(CN12)[C@@H]1CCCCN1C3.[O-][Cl+3]([O-])([O-])O (stereo partly drawn)	97
CC(=O)/N=c1\sc(S(N)(=O)=O)nn1C	90
Nc1ccc(S(=O)(=O)Nc2ccnn2-c2ccccc2)cc1	99
O=C(O)CCCCC1CCSS1 (stereo not drawn)	239
COC(=O)C[C@H]1C2(C)CC34OC5(C)O[C@@]6([C@H](OC)C(OC(=O)C(C)C)[C@]7(C)C(/C(=C(/OC)C(C)C)C(=O)O[C@H]7c7ccoc7)[C@@]6(O5)[C@H](OC)[C@@]3(OC)C2OC(C)=O)[C@]14C (stereo partly drawn)	135
Cc1cc(C(C)(C)C)c(O)c(C(C)(C)C)c1	112
Cc1nc2ccccn2c(=O)c1CCN1CCC(C(=O)c2ccc(F)cc2)CC1	129
CC1(C)O[C@H]2CC(=O)OC[C@]23[C@H]2CC[C@@]4(C)[C@H](c5ccoc5)OC(=O)[C@H]5O[C@]54[C@]2(C)C(=O)C[C@@H]13	100
CCCCCCCCCCCCCCCCCCOCC(O)CO (stereo not drawn)	96
C[n+]1c2cc(N)ccc2cc2ccc(N)cc21.[Cl-]	169
CC1=NCCc2c1[nH]c1cc(O)ccc21.Cl	160
COC1=C[C@@H](C)[C@@H]2C[C@H]3OC(=O)C[C@H]4C(C)=C(OC)C(=O)[C@H]([C@@]2(C)C1=O)[C@@]34C	110
N=C(N)c1ccc(OCCCCCOc2ccc(C(=N)N)cc2)cc1.O=S(=O)(O)CCO.O=S(=O)(O)CCO	207
CCCCOc1ccc(C(=O)CCN2CCCCC2)cc1.Cl	206
CC1(C)C(=O)C=C[C@@]2(C)C1CC(=O)[C@]1(C)C2CC[C@@]2(C)[C@H](c3ccoc3)OC(=O)[C@H]3O[C@]321 (stereo partly drawn)	80
CC(C1OC(C)(C)C(O)C1O)[C@@H]1CC[C@]2(C)C3=CCC4C(C)(C)C(=O)CC[C@]4(C)C3CC[C@@]12C (stereo partly drawn)	122
COC(=O)c1cc(O)c(=O)c2c(O)c(O)ccc2c1	121
CC(N)CCCC(C)(C)O.Cl (stereo not drawn)	88
